{"source": "paper PMC12136788", "binders": {"B1": {"name": "chr4:39779992:39779993:+_ENSG00000078140_ENST00000510719|hu_mus|FALSE|FALSE (ssRNA)", "RNA": "GGGAGUUCUACAGUCCGACGAUCACUCAGAAGCAGUUCUGUUGCAGUCUCUACAUCCCAUGAUUUUGAAGACAAGGCCACUAUUACUGCGUUCCUAUCAAAACCCAUAGCACAGAGGUUUUCUAUUUUUUUGGUGUAUUCUGGCAACAGAGGAUUGAGCAUCA"}, "B2": {"name": "chr11:118025658:118025659:-_ENSMUSG00000017132_ENSMUST00000017276|mus_hu|FALSE|FALSE (ssRNA)", "RNA": "GGGAGUUCUACAGUCCGACGAUCUUGUAUUUUGACAAAACUUCUUUUAAACAAAUACAAAAUAAUCUAAAAGGAGAAAAACUAUACAUAGAUUAUUUACACCUCUGAUAAAUAGACUAAUACUGACCCAGGUGCCUCUCUGUCCAACAGAGGAUUGAGCAUCA"}, "B3": {"name": "chr7:75932113:75932114:+_ENSG00000106211_ENST00000248553|hu_hu|hu_hu_hu_mus_False|98_98 (ssRNA)", "RNA": "GGGAGUUCUACAGUCCGACGAUCCUGCGACCACUCAUCCGGCAGCCGGGGCACCCCGAAAGCUUGAUCGAAGAGGCGGCUGUGUGCAGGGUACCAGUCCCGGAAUGGUUCCCAGCUCGGGCUCCGCAGCAGCGAGAAGGGCACCAACAGAGGAUUGAGCAUCA"}, "B4": {"name": "chrX:140365796:140365797:-_ENSMUSG00000031285_ENSMUST00000033642|mus_mus|mus_mus_mus_hu_False|18_28 (ssRNA)", "RNA": "GGGAGUUCUACAGUCCGACGAUCCUUCUCAUUACUCAGUGCCUGCAAGGUUCUGGUUCGGUAGAAGCUACAGUGGGCGCUGUGAGUGGGGCUAGGCAACCCAUUCAUCCGUGACCCUCUCAUAUUUCUGGAUGUCUUAUCUCUCAACAGAGGAUUGAGCAUCA"}, "B5": {"name": "99087834_99087954_2473_CDS_ENSG00000152767_ENST00000319562|human|control|control (ssRNA)", "RNA": "GGGAGUUCUACAGUCCGACGAUCCGGAACCACAAGAUUGUCAAUGCCAAUCAAAUCUUUCUUGAGUUCGUGCAGCUUCUGGAAAUUCUCCAUCUUGAUCAUCGUACCGUGGAGCUGUGCCACCAUCUCCGUGAUCUCUGCCAACAACAGAGGAUUGAGCAUCA"}, "B6": {"name": "114483797_114483917_1084_3pUTR_ENSG00000163349_ENST00000369558|human|control|control (ssRNA)", "RNA": "GGGAGUUCUACAGUCCGACGAUCCAUCAAGGCUGUGGCCACCUGCUGCAAGAUUGGUCUGAUGUACUUGAGUGGCAGUGGGCUAAAUUUGUUUUGCUUUAGAAAAUCAUAUAAGUUCUGCUCCAACAUUUCAAAAACAAGGCACAACAGAGGAUUGAGCAUCA"}, "B7": {"name": "chrX:140365796:140365797:-_ENSMUSG00000031285_ENSMUST00000033642|mus_mus|mus_mus_mus_hu_False|58_78 (ssRNA)", "RNA": "B4 RNA with G59U, G78A, G81A, U111G, C114G, U119G, A123G, U126C"}, "B8": {"name": "28289759_28289879_4143_CDS_ENSMUSG00000040651_ENSMUST00000022450|mouse|control|control (ssRNA)", "RNA": "GGGAGUUCUACAGUCCGACGAUCUGUGACAACCUCUAGAUUUAGAAUUGAUUCAUCAGACACAAUAAAGCCACCAGAUACAAAUAACUCGUUGUAUGUAUGAUUUUUAACAUCAUCCAGGCUAUCAACACCAGCAAAACUAACCAACAGAGGAUUGAGCAUCA"}, "B9": {"name": "chr15:5129413:5129414:+_ENSMUSG00000050697_ENSMUST00000051186|mus_mus|motif|central (ssRNA)", "RNA": "GGGAGUUCUACAGUCCGACGAUCAAAAUAGCAUGUUAAGAGGAAUAUGGAAAUAGUUCACAAUGUAACCAAAAAUGGAAACGGGUAGCUAUUUUGGAAGUUAAGGAGCCCAGAAAACAGCAUUAUCUAAUAAGGUCUAUGAGGCAACAGAGGAUUGAGCAUCA"}, "B10": {"name": "chr13:49821539:49821540:+_ENSMUSG00000037851_ENSMUST00000165316|mus_mus|FALSE|FALSE (ssRNA)", "RNA": "GGGAGUUCUACAGUCCGACGAUCUUCCCGAGCCAUGCCCUCAUCCACCAUUGACUGGUCAGGUGUGACAUCUAAGAGAACUAGAGCCUGAGCAUCAGAGUGUGCUUCAAACUGCGCGGUCCCUCCCGUGGCCUGGUCAAAGGUCAACAGAGGAUUGAGCAUCA"}, "B11": {"name": "116324102_116324222_123_5pUTR_ENSMUSG00000028692_ENSMUST00000030455|mouse|control|control (ssRNA)", "RNA": "GGGAGUUCUACAGUCCGACGAUCGGAGGAGACCCCCACUGUCCUGCGAAGUAGAAGAGGGAGUAGAAGCCAAAGCUGGGACUUUGCACAUUCCUCCCCUGGGAACCUCUCACUCCACCACGAACGUCUGGAAGGGCCGGGGUCCAACAGAGGAUUGAGCAUCA"}, "B12": {"name": "chr14:31074762:31074763:+_ENSG00000092140_ENST00000206595|hu_mus|FALSE|FALSE (ssRNA)", "RNA": "GGGAGUUCUACAGUCCGACGAUCCCACACAUUGGCUUUGUUGAUGUAUAAUGUCUUAGUUUUCUUUUUAAUUUGGAAUCCUAACUCUAUCAAUAUUGUUGAAAUGUCUCUCCUAAAUUUGCUGCCUUGCCUCAGUAGUUCUUUCAACAGAGGAUUGAGCAUCA"}, "B13": {"name": "chr1:163112212:163112213:-_ENSG00000143248_ENST00000313961|hu_hu|hu_hu_hu_mus_False|78_108 (ssRNA)", "RNA": "GGGAGUUCUACAGUCCGACGAUCUUUAUUUAUCCAGAAGAGUGAGUUACAUACUAGAUAAAGUAUUGGAUACAAUAAUCAGGAAACAAACACUAUUGGUCCAGAAUUUAAAACUUUAUGAGCGAAGUGCUGGCACAGGACUUACAACAGAGGAUUGAGCAUCA"}, "B14": {"name": "59717319_59717439_3773_3pUTR_ENSMUSG00000039585_ENSMUST00000128341|mouse|control|control (ssRNA)", "RNA": "GGGAGUUCUACAGUCCGACGAUCAAUGACAGCUGCAGCUCGUAAUUCCAAGUACCGUUGCCUCUCUAAGUGAGCACGCCAGGAUGCCUGAAGAAGGGAAGCUGCACUAGCCAUUAUGAAAGCAUCUUUCUCCACAGCCGCAUUCAACAGAGGAUUGAGCAUCA"}, "B15": {"name": "chr7:44244176:44244177:+_ENSG00000106636_ENST00000223369|hu_mus|hu_hu_hu_mus_False|88_98 (ssRNA)", "RNA": "GGGAGUUCUACAGUCCGACGAUCACUGUCGCUCCGGACGUAGACGUGGCACAGAUACUCUUGUUCUUUGACAGAAGCUCUGCUGCCUUUCCCCGAGCGUUCCACAAUCAGUUGACUUGUAAAGGUCAUGAAUUCCUGCACACUCAACAGAGGAUUGAGCAUCA"}, "B16": {"name": "chr4:57314706:57314707:+_ENSG00000128050_ENST00000264221|hu_mus|hu_hu_hu_mus_True|18_108 (ssRNA)", "RNA": "GGGAGUUCUACAGUCCGACGAUCCAGUAUUUCAAAUAUAGCUUGUGUGGCAUGACUCAUGAUGUCCACUUCAGUCUGCCCUAUAACAAGGCCAGCAAAACAGAAUUUUGCAGCAAUCAGCUGUUCCUCAGACCACUGUGGAUCCAACAGAGGAUUGAGCAUCA"}, "B17": {"name": "chr5:37680062:37680063:+_ENSMUSG00000029121_ENSMUST00000031004|mus_hu|mus_mus_mus_hu_False|28_28 (ssRNA)", "RNA": "GGGAGUUCUACAGUCCGACGAUCUUUGGGUGUAGCUGGUACCUCGUACACAGGACCGUCAUACAUGCCCCUGGAAACCCCUUGCAAUCCAAAAACCUUAUUCCUGAUCCUGACACGCUGGUACAGGUGCUCCGGGAACGCCUUCAACAGAGGAUUGAGCAUCA"}, "B18": {"name": "31795390_31795510_3650_CDS_ENSG00000129493_ENST00000543095|human|control|control (ssRNA)", "RNA": "GGGAGUUCUACAGUCCGACGAUCUUUACAAAGCUUUAACCACAGGGAGAGUUUUUCCACUGCCAUAGAUGUAAGCAUAUAAUUUAAAGUCUCUUUGAUAUCAUGGCAUAAUCUCUCAUCUGUCUCCUUGUCUAGUAAGAUCAACAACAGAGGAUUGAGCAUCA"}, "B19": {"name": "chr12:7080122:7080123:+_ENSG00000126749_ENST00000261406|hu_hu|FALSE|FALSE (ssRNA)", "RNA": "GGGAGUUCUACAGUCCGACGAUCUCGGGGCCGCUUGGGUGGCAGAGCAUCCCAGUCCUGUGCCUGCUCCCCACCGCUUCGUUCACGAGGCUUGAAUCCAUCACUGGGCGCGGCCAUCUUGCAACAAUACCGGAAGUUGCGCUACAACAGAGGAUUGAGCAUCA"}, "B20": {"name": "chr15:44268054:44268055:+_ENSMUSG00000022338_ENSMUST00000060652|mus_hu|FALSE|FALSE (ssRNA)", "RNA": "GGGAGUUCUACAGUCCGACGAUCUCCAGUUAGUGAGGCAGAGGGCCCUGGAGGGAGCCCUAGGAAACACCAUUAUCUACAAGUCCCAGACAGCAAAAGGUACUCCACAAGAAACAGAAGGAACUUCCAGUGGUAGCAAAAGCACAACAGAGGAUUGAGCAUCA"}, "B21": {"name": "chr7:151048522:151048523:+_ENSG00000013374_ENST00000566856|hu_mus|hu_hu_hu_mus_True|28_108 (ssRNA)", "RNA": "GGGAGUUCUACAGUCCGACGAUCCUGCUUCUUAUUUAUUACGAUCUUGAUGUAAUUUUCUUGAAAUCCGAAAGUUUCAGCUAUUUGACACCUCAGGUCUCUACCAGUGAUGUGCAAGCGGGUCUCCAACAAGCUUUUCUUAUCCAACAGAGGAUUGAGCAUCA"}, "B22": {"name": "153192111_153192231_421_CDS_ENSG00000157827_ENST00000288670|human|control|control (ssRNA)", "RNA": "GGGAGUUCUACAGUCCGACGAUCCACGAUGGCAAAUCGCUCCUCCAGUUCACCUGGCUCUGGCAUCGGCAGCUUCAAAGGCACGUUGUGCGCCCUGAAAUCGGUCUGCUGCGAAUCCAUGCUCCCUGCGUUGCCCAUGUCGGCCAACAGAGGAUUGAGCAUCA"}}, "note": "Residue numbers refer to the chain shown, from its start. This is one part of the list.", "data": [{"biological_target": "T1, UNK ZnF1-3 (human, UniProt Q9C0B0 31-174)", "T1 sequence": "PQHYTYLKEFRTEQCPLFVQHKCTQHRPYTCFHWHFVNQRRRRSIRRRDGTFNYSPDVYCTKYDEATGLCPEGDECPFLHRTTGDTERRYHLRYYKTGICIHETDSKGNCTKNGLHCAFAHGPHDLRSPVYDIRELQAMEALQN", "test": "nsRBNS (natural sequence RNA bind-n-seq); RBNS binding buffer (assumed for nsRBNS): 25 mM Tris pH 7.5, 150 mM KCl, 3 mM MgCl2, 0.01% Triton X-100, 500 ug/ml BSA, 20 U/ml SUPERase-In, 4 C; UNK is unkempt and MSI1 is Musashi-1; names of the RNAs are library labels; protein concentration not given here; high values mean tight binding", "units": {"binding signal": "enrichment R"}, "values": [{"binder": "B1", "binding signal": 0.737}, {"binder": "B2", "binding signal": 1.43}, {"binder": "B3", "binding signal": 1.07}, {"binder": "B4", "binding signal": 0.603}, {"binder": "B5", "binding signal": 0.693}, {"binder": "B6", "binding signal": 1.75}, {"binder": "B7", "binding signal": 0.426}, {"binder": "B8", "binding signal": 1.51}, {"binder": "B9", "binding signal": 1.7}, {"binder": "B10", "binding signal": 0.889}, {"binder": "B11", "binding signal": 1.33}, {"binder": "B12", "binding signal": 0.805}, {"binder": "B13", "binding signal": 1.21}, {"binder": "B14", "binding signal": 0.668}, {"binder": "B15", "binding signal": 0.544}, {"binder": "B16", "binding signal": 1.05}, {"binder": "B17", "binding signal": 0.837}, {"binder": "B18", "binding signal": 1.19}, {"binder": "B19", "binding signal": 0.761}, {"binder": "B20", "binding signal": 1.44}, {"binder": "B21", "binding signal": 0.676}, {"binder": "B22", "binding signal": 0.758}]}]}
